Publication PMC4336329 (PLoS ONE, 2015)
In all, about 310,000 compounds went through this assay and about 2,200 (0.71%) showed an effect of 50% or more. Effects have a minus sign here. The list shows a part of the results.

These compounds were tested against human ether-à-go-go-related gene (hERG) potassium channel (human, UniProt Q12809) (assay: primary screen, population patch clamp on CHO cells stably expressing hERG).
human ether-à-go-go-related gene (hERG) potassium channel, sequence (Q12809 whole entry, looked up): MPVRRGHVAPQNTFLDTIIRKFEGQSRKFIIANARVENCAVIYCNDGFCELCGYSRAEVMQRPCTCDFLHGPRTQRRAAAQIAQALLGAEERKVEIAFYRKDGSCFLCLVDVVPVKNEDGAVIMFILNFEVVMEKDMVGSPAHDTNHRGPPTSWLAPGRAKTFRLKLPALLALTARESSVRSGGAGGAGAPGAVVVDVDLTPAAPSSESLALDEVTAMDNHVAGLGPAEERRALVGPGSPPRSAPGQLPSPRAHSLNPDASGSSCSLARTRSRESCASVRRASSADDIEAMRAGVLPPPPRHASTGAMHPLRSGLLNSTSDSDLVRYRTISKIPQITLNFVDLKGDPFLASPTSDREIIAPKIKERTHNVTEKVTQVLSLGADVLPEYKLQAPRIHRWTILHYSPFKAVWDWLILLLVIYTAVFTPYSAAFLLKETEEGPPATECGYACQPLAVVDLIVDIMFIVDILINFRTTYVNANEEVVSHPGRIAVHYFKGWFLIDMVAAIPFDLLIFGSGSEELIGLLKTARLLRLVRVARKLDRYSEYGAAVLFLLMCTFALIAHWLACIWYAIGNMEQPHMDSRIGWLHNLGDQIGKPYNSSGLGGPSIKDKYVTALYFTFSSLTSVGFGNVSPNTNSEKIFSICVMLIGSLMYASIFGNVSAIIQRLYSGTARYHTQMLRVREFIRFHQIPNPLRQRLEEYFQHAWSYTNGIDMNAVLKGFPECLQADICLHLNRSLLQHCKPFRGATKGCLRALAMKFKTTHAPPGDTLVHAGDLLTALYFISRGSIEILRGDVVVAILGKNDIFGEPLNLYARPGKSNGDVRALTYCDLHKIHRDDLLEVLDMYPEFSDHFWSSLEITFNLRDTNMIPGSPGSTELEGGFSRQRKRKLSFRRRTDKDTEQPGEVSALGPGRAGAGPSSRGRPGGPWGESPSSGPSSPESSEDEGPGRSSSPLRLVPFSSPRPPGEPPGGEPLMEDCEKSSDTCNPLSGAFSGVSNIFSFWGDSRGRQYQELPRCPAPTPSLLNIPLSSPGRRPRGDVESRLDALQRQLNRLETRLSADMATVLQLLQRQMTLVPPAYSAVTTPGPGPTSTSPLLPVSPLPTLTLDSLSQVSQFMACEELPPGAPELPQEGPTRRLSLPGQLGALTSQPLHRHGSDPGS
For `COc1ccc(/C=C/c2nc(S(=O)(=O)c3ccccc3)c(N(C)C)o2)cc1`, the “hERG current change (%, negative = inhibition) at 1uM” value was 7.99%. With `COc1cc(C=O)ccc1OCC(=O)NC(C)(C)C` the “hERG current change (%, negative = inhibition) at 1uM” value was 16.6%. With `Cc1cc(C)n(C(=O)/C(C#N)=N\Nc2ccccc2[N+](=O)[O-])n1` the “hERG current change (%, negative = inhibition) at 1uM” value was 7.38%. `N#Cc1c2ccc(OCC(N)=O)cc2n2ccccc12` was tested, and the “hERG current change (%, negative = inhibition) at 1uM” value was 13.6%. With `Nc1[nH][nH]c(=O)c1N=Nc1ccc2c(c1)OCO2` the “hERG current change (%, negative = inhibition) at 1uM” value was 0.524%. For `Cc1nc(NC(=O)c2c(-c3ccccc3Cl)noc2C)sc1C`, the “hERG current change (%, negative = inhibition) at 1uM” value was 5.14%. With `O=C(c1ccccc1)c1c[nH]c(C(=O)C(Cl)(Cl)Cl)c1` the “hERG current change (%, negative = inhibition) at 1uM” value was 16%. In the case of `CC1CC1C(=O)OCC(=O)Nc1ccccc1Oc1ccccc1` (stereo not shown), the “hERG current change (%, negative = inhibition) at 1uM” value is reported as 19%. For `COCC(=O)Nc1cc([N+](=O)[O-])ccc1OC`, the “hERG current change (%, negative = inhibition) at 1uM” value was 11.6%. In the case of `Cc1ccc(CCN2CC(C(=O)NCCCN3CCCCCC3)CC2=O)cc1` (stereo not shown), the “hERG current change (%, negative = inhibition) at 1uM” value is reported as 13.6%. For `COc1ccc(C(=O)O/N=C(/C(N)=O)P(=O)(OC(C)C)OC(C)C)cc1`, the “hERG current change (%, negative = inhibition) at 1uM” value was 8.1%. For `Cc1cccc2cc(C(c3nnnn3Cc3ccccc3)N3CCCc4ccccc43)c(=O)[nH]c12` (stereo not shown), the “hERG current change (%, negative = inhibition) at 1uM” value was 7.15%. For `COc1ccc(OC)c(S(=O)(=O)N2CCN(CC(O)COc3ccccc3)CC2)c1` (stereo not shown), the “hERG current change (%, negative = inhibition) at 1uM” value was -13.6%. `NC(=O)c1ccc(S(=O)(=O)N2CCSCC2)cc1` was tested, and the “hERG current change (%, negative = inhibition) at 1uM” value was 12.2%. With `COc1ccc(NC(=O)c2ccccc2CC[N+](=O)[O-])cc1` the “hERG current change (%, negative = inhibition) at 1uM” value was 16.4%. `C=CCn1c(O)c(C(C)=NCCc2ccccc2)c(=O)[nH]c1=O` was tested, and the “hERG current change (%, negative = inhibition) at 1uM” value was 1.74%. For `CC1(C)CC(=O)C=C(NCCN2CCNCC2)C1`, the “hERG current change (%, negative = inhibition) at 1uM” value was -4.2%. In the case of `CCCCC(=O)Nc1c(-c2ccc(OC)c(OC)c2)c(=O)c2ccccc2n1C`, the “hERG current change (%, negative = inhibition) at 1uM” value is reported as 10.7%. For `Cc1ccc(CCNC(=O)CC(C)CC2=NS(=O)(=O)c3ccccc3N2)cc1` (stereo not shown), the “hERG current change (%, negative = inhibition) at 1uM” value was 12.8%. For `Cc1cc(C)n(S(=O)(=O)c2ccc(Cl)c(Cl)c2Cl)n1`, the “hERG current change (%, negative = inhibition) at 1uM” value was 5.71%. For `CCc1cccc(C)c1NC(=O)Cc1ccsc1`, the “hERG current change (%, negative = inhibition) at 1uM” value was 6.6%. `CC(C)C(=O)Nc1ccc(NC(=O)c2cccs2)cn1` was tested, and the “hERG current change (%, negative = inhibition) at 1uM” value was 2.04%. In the case of `COc1cc(CNn2nnnc2N)ccc1OCc1c(Cl)cccc1Cl`, the “hERG current change (%, negative = inhibition) at 1uM” value is reported as -7.02%. `CCCCCCCCCCS(=O)(=O)N/N=C/c1ccccc1OC` was tested, and the “hERG current change (%, negative = inhibition) at 1uM” value was 13.4%. With `COc1ccc(Cl)cc1NC(=O)CN(C)C(=O)CCCNC(=O)c1ccc(Cl)cc1` the “hERG current change (%, negative = inhibition) at 1uM” value was -5.75%. `CCOC(=O)c1c(C)[nH]c(C(=O)COC(=O)c2ccccc2NC(=O)c2ccco2)c1C` was tested, and the “hERG current change (%, negative = inhibition) at 1uM” value was 14.8%. In the case of `C=CCn1c(=O)c2ccccc2n2c(SCC(N)=O)nnc12`, the “hERG current change (%, negative = inhibition) at 1uM” value is reported as 6.39%. In the case of `CSc1cccc(NC(=O)Nc2ccccc2C(N)=O)c1`, the “hERG current change (%, negative = inhibition) at 1uM” value is reported as 6.25%. `C=CCN1C(=O)C(Cc2ccc(OCC)cc2)SC1=Nc1ccc(C(=O)O)cc1` (stereo not shown) was tested, and the “hERG current change (%, negative = inhibition) at 1uM” value was 0.342%. In the case of `Cc1cccn2c(NC(=O)c3ccccc3F)c(-c3ccccc3)nc12`, the “hERG current change (%, negative = inhibition) at 1uM” value is reported as 5%. In the case of `CN1C(=O)c2oc3ccccc3c(=O)c2C1c1ccncc1` (stereo not shown), the “hERG current change (%, negative = inhibition) at 1uM” value is reported as 5.81%. `O=C(Nc1ccc(NC(=O)c2ccco2)nc1)c1ccccn1` was tested, and the “hERG current change (%, negative = inhibition) at 1uM” value was 2.41%. In the case of `C=CCN(c1ccccc1)S(=O)(=O)c1ccc(Cl)c(C(=O)OCC(=O)NCCCN2CCCC2=O)c1`, the “hERG current change (%, negative = inhibition) at 1uM” value is reported as 19.9%. In the case of `Cc1cc(-c2nnc(SCC(=O)Nc3ccc(F)cc3F)n2N)n[nH]1`, the “hERG current change (%, negative = inhibition) at 1uM” value is reported as 12.9%. `COc1ccc(C)cc1NC(=O)COC(=O)C1CC1` was tested, and the “hERG current change (%, negative = inhibition) at 1uM” value was 6.74%. `O=C(CNC(=O)c1sc2ccccc2c1Cl)OCc1ccccc1` was tested, and the “hERG current change (%, negative = inhibition) at 1uM” value was 4.08%. For `Cc1cc(C)cc(N2C(=O)CSC2c2cccs2)c1` (stereo not shown), the “hERG current change (%, negative = inhibition) at 1uM” value was 8.82%. In the case of `O=C(c1ccc(Oc2ccc([N+](=O)[O-])cc2)cc1)N1CCCCCC1`, the “hERG current change (%, negative = inhibition) at 1uM” value is reported as 4.77%. In the case of `Cc1cc(/C(N)=N/OC(=O)c2ccc(Cl)cc2)no1`, the “hERG current change (%, negative = inhibition) at 1uM” value is reported as 9.68%. In the case of `CC1CN(C(=O)CSc2nnc(-c3ccccc3)o2)CC(C)O1` (stereo not shown), the “hERG current change (%, negative = inhibition) at 1uM” value is reported as 11.2%. `Cc1c(/C=C(\C#N)C(=O)NCc2ccccc2)cc(C#N)n1C` was tested, and the “hERG current change (%, negative = inhibition) at 1uM” value was 16.5%. `O=C(Nc1ccc(S(=O)(=O)NCc2ccccc2)cc1)Nc1ccc2c(c1)OCO2` was tested, and the “hERG current change (%, negative = inhibition) at 1uM” value was 6.32%. With `COC(=O)N[C@H](CC(C)=O)c1ccccc1` the “hERG current change (%, negative = inhibition) at 1uM” value was 13.6%. With `O=C1CCCC2=C1C(c1ccccc1)C1C(=O)c3ccccc3C1=N2` (stereo not shown) the “hERG current change (%, negative = inhibition) at 1uM” value was 13.1%. For `Cc1ccc(-c2cc(C(F)F)n3ncc(C(=O)NN4CCCCC4)c3n2)cc1`, the “hERG current change (%, negative = inhibition) at 1uM” value was 14.8%. In the case of `COc1ccc(C(=O)NC(Cc2c[nH]c3ccccc23)C(=O)O)cc1` (stereo not shown), the “hERG current change (%, negative = inhibition) at 1uM” value is reported as 11.5%. With `Oc1ccc(-c2nncn2-c2ccccc2)cc1` the “hERG current change (%, negative = inhibition) at 1uM” value was 16.2%. `CCOC(=O)C1CCN(c2c(NCc3ccc(C(=O)NCCC(C)C)cc3)c(=O)c2=O)CC1` was tested, and the “hERG current change (%, negative = inhibition) at 1uM” value was 4.68%. With `CCN(CC)S(=O)(=O)c1ccc(/C=C/C(=O)OCC#N)cc1` the “hERG current change (%, negative = inhibition) at 1uM” value was -5.89%. For `Cc1[nH]n(-c2ccccc2)c(=O)c1/C=N/N1C(=O)c2ccc3c4c(ccc(c24)C1=O)CC3`, the “hERG current change (%, negative = inhibition) at 1uM” value was 2.84%. `COC(=O)c1ccc(-c2cc(C(=O)O)c3cc4c(cc3n2)OCCO4)cc1` was tested, and the “hERG current change (%, negative = inhibition) at 1uM” value was 0.418%. With `COc1ccccc1N1CCN(S(=O)(=O)c2c(C)[nH]c(C)c2C(=O)N2CCCCC2)CC1` the “hERG current change (%, negative = inhibition) at 1uM” value was 15%. `CCC(C)NC(=O)CSc1nc2ccccc2c(=O)n1Cc1ccc(OC)cc1` (stereo not shown) was tested, and the “hERG current change (%, negative = inhibition) at 1uM” value was -2.46%. With `CCCCCn1c(CNC(=O)CC)nc2ccccc21` the “hERG current change (%, negative = inhibition) at 1uM” value was 0.352%. With `COc1cc2cc(C(=O)Nc3ccccc3)c(N)nc2cc1OC` the “hERG current change (%, negative = inhibition) at 1uM” value was 0.219%. With `CCN(c1ccc(NC(=O)COC(=O)CCc2nc3ccccc3n2-c2ccccc2)cc1)C(C)C` the “hERG current change (%, negative = inhibition) at 1uM” value was 1.68%. `CC(C)C(C(=O)Nc1nccs1)c1ccc(Cl)cc1` (stereo not shown) was tested, and the “hERG current change (%, negative = inhibition) at 1uM” value was 11.8%. `COC(CNC(=O)C(=O)Nc1ccc2c(c1)N(S(=O)(=O)c1cccs1)CCC2)OC` was tested, and the “hERG current change (%, negative = inhibition) at 1uM” value was 13.9%.
